Results published in a compilation of properties of binary mixtures (doi:10.1016/j.molliq.2016.08.002).
The densities may have been worked out from excess volumes.

Assay: xn = mol fraction of the nth substance listed
Settings: 101 kPa

CC[n+]1ccn(C)c1.COS(=O)(=O)[O-] + CCCO
mass density [kg/m3]
Settings | 298.15 K | 303.15 K | 308.15 K | 313.15 K
x2 = 0.0664 | 1271.7 | 1268.5 | 1265.5 | 1262.5
x2 = 0.108 | 1262.6 | 1259.4 | 1256.5 | –
x2 = 0.2036 | 1239.6 | 1236.5 | – | 1230.9
x2 = 0.2888 | 1216.5 | 1213.4 | 1210.7 | –
x2 = 0.3652 | 1192.9 | 1190 | 1187.3 | 1184.3
x2 = 0.4965 | – | – | 1139.7 | 1136.8
x2 = 0.6054 | 1097.2 | 1094.5 | 1091.3 | 1088.4
x2 = 0.6971 | 1048.5 | 1045.7 | 1042.2 | 1039.3
x2 = 0.7754 | 999.1 | 996.3 | 992.6 | 989.8
x2 = 0.843 | 949.7 | 946.6 | 942.7 | 939.8
x2 = 0.902 | 899.9 | – | 892.6 | 889.4
x2 = 0.9539 | 849.8 | – | 842.4 | –

CC[n+]1ccn(C)c1.COS(=O)(=O)[O-] + CCCCCO
mass density [kg/m3]
Settings | 298.15 K | 303.15 K | 308.15 K | 313.15 K
x2 = 0.0469 | 1271.6 | – | 1265.3 | 1262.3
x2 = 0.0773 | 1262.5 | – | 1256.4 | 1253.3
x2 = 0.1502 | – | 1236.4 | – | 1230.3
x2 = 0.2192 | – | 1213 | 1210 | 1207.1
x2 = 0.2845 | 1192.8 | 1189.5 | 1186.4 | 1183.4
x2 = 0.4054 | 1145.4 | 1142 | 1138.8 | 1135.8
x2 = 0.5147 | – | 1094.1 | – | 1087.6
x2 = 0.614 | 1049.7 | 1046.1 | 1042.7 | 1039.4
x2 = 0.7047 | 1001.8 | 998 | 994.6 | 991.1
x2 = 0.7878 | 953.9 | 950 | – | 942.9
x2 = 0.8642 | 906.2 | – | 898.7 | –
x2 = 0.9347 | 858.5 | 854.5 | 851 | 847.1

CC[n+]1ccn(C)c1.COS(=O)(=O)[O-] + CCCCO
mass density [kg/m3]
Settings | 298.15 K | 303.15 K | 308.15 K | 313.15 K
x2 = 0.0552 | 1271.5 | 1268.3 | 1265.1 | 1262
x2 = 0.0904 | – | 1259.1 | 1256 | 1253
x2 = 0.1734 | 1239 | 1235.9 | 1232.9 | 1230
x2 = 0.25 | 1215.5 | – | – | 1207
x2 = 0.3207 | 1192 | 1189.2 | 1186.2 | 1183.6
x2 = 0.4473 | 1144.6 | 1141.8 | 1138.9 | 1136.4
x2 = 0.5573 | 1096.9 | – | – | –
x2 = 0.6538 | 1048.8 | – | 1042.8 | –
x2 = 0.7391 | 1000.4 | 997.5 | 994.3 | 991.4
x2 = 0.815 | 951.9 | 948.8 | 945.4 | 942.3
x2 = 0.8831 | 903.3 | 900 | 896.5 | 893.1
x2 = 0.9444 | – | 851 | 847.4 | 843.8

CC[n+]1ccn(C)c1.COS(=O)(=O)[O-] + CCCCCCO
mass density [kg/m3]
Settings | 298.15 K | 303.15 K | 308.15 K | 313.15 K
x2 = 0.0409 | 1271.5 | 1268.4 | 1265.2 | 1262
x2 = 0.0677 | 1262.4 | 1259.3 | 1256 | 1252.8
x2 = 0.1329 | 1239.3 | 1236.2 | 1232.9 | 1229.7
x2 = 0.1958 | – | – | – | 1206.4
x2 = 0.2565 | – | – | 1186.2 | 1182.9
x2 = 0.3716 | 1145.8 | 1142.4 | – | 1135.7
x2 = 0.4791 | – | 1095.2 | 1091.6 | 1088.2
x2 = 0.5798 | – | – | 1044.2 | –
x2 = 0.6742 | 1004.3 | 1000.5 | 996.7 | 993.2
x2 = 0.763 | 957.2 | 953.3 | 949.4 | 945.7
x2 = 0.8466 | 910.1 | 906.1 | 902.2 | 898.5
x2 = 0.9255 | 863.1 | 859.1 | 855.1 | 851.4
